Paper PMC4336329 (PLoS ONE, 2015)
About 14,000 (4.5%) of roughly 310,000 compounds showed an effect of 50% or more. The effect is printed as a negative number. The list shows a part of the results.

target: human ether-à-go-go-related gene (hERG) potassium channel (human, UniProt Q12809); assay: primary screen, population patch clamp on CHO cells stably expressing hERG
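Note: peak tail current of the secondary pulse compared with the same well before compound.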

Sequence of human ether-à-go-go-related gene (hERG) potassium channel (Q12809 whole entry, looked up): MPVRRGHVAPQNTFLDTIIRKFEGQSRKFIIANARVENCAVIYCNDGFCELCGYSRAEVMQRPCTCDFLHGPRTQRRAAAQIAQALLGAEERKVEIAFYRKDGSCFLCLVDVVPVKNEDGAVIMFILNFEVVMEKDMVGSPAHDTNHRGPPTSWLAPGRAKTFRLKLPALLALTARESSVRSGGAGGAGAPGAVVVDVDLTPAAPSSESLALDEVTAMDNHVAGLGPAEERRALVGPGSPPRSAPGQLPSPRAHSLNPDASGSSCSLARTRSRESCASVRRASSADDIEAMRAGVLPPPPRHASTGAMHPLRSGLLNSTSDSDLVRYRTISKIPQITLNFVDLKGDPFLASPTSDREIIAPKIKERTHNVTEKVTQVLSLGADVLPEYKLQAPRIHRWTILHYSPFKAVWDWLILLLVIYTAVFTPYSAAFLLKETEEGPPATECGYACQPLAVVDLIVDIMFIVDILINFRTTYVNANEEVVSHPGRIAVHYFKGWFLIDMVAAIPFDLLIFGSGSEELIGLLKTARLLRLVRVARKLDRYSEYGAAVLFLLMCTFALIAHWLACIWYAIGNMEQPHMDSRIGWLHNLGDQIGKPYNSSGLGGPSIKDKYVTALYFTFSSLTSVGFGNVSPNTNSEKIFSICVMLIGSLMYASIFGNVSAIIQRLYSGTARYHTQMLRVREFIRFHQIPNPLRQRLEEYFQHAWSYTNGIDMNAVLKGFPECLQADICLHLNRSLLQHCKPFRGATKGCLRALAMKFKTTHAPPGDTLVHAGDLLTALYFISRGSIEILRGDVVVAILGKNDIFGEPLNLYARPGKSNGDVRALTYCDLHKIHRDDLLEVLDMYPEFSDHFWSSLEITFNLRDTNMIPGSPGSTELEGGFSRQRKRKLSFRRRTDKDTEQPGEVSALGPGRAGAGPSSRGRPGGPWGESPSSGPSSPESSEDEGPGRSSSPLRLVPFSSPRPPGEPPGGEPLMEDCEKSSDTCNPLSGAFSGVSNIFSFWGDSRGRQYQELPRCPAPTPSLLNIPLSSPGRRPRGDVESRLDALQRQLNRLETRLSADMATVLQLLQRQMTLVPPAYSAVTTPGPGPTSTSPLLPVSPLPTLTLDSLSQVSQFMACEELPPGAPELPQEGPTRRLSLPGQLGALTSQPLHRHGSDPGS

| Compound | hERG current change (%, negative = inhibition) at 10uM [%] |
| --- | --- |
| CCCOc1ccc(C(=O)Nc2cc(S(=O)(=O)N3CCOCC3)ccc2N2CCOCC2)cc1 | -42.2 |
| CCC(=NCCCN1CCOCC1)c1c(O)n(-c2ccccc2C)c(=O)[nH]c1=O | 8.28 |
| CCCS(=O)(=O)c1c(S(=O)(=O)CCC)c2ccc(C(N)=O)cn2c1C(=O)c1ccccc1 | 12.3 |
| CNC(=O)c1[nH]cnc1C(=O)Nc1ccc(F)cc1 | 12 |
| Cc1nn(-c2ccccc2)c(C)c1NC(=O)Cc1cccs1 | -11.7 |
| COc1ccccc1-c1oc2ccccc2c1-c1ccc2cc[nH]c2c1 | 17.9 |
| CCCCN(C)C(=O)c1ccc2c(c1)S(=O)(=O)c1ccccc1C2=O | -24.4 |
| Cc1cccn2cc(-c3cccc(S(=O)(=O)N4CC(C)OC(C)C4)c3)nc12 (stereo not drawn) | -2.37 |
| O=C(CSc1ncn(-c2ccccc2)n1)N1CCN(c2ccccc2)CC1 | -11 |
| COc1cc(NC(=O)CN(C)Cc2cccc(F)c2)c(C)cc1[N+](=O)[O-] | 22.9 |
| O=C(CCn1c(=O)[nH]c2ccsc2c1=O)N1CCN(c2cccc(Cl)c2)CC1 | -52.3 |
| OCCC1CN(Cc2cn[nH]c2C2CCCCC2)CCN1C1CCCCC1 (stereo not drawn) | -8 |
| C[C@H]1C(=O)N(C)CCN1C(=O)c1cccc(OC2CCN(CC(C)(C)C)CC2)c1 | 23.3 |
| CCOc1ccc(S(=O)(=O)N2CCCC(C(=O)NCc3ccccc3)C2)cc1 (stereo not drawn) | -2 |
| CC1Cc2ccccc2N1C(=O)CSc1nnc(CSc2ncccn2)n1C (stereo not drawn) | -24.1 |
| CN(C)c1ccc(C2(O)C(=O)c3ccccc3C2=O)cc1 | 23.4 |
| CN1C(=O)CCC1(O)c1ccccc1 (stereo not drawn) | -1.2 |
| CCOC(=O)c1ccc(NC(=O)CCS(=O)(=O)Cc2ccccc2)cc1 | -7.77 |
| CCn1nc(NC(=O)COC)c2cc3cccc(C)c3nc21 | 10.7 |

| Compound | hERG current change (%, negative = inhibition) at 10uM [%] |
| --- | --- |
| CCCCn1nnnc1SCC(=O)NC1CCCCC1 | 17.8 |
| Cc1c(NC(=O)c2cccc(NC(=O)COc3ccccc3)c2)c(=O)n(-c2ccccc2)n1C | 9.67 |
| CC(C)(C)c1ccc(OCC(=O)NCCN2CCCC2)cc1.Cl | -33.7 |
| COc1ccc(NC(=O)CNC(=O)c2sc3ccccc3c2Cl)c(OC)c1 | 0.61 |
| COc1cc(C2Nc3ccc4ncccc4c3C3=C2C(=O)CCC3)ccc1O (stereo not drawn) | 13 |
| CC(C)(C)c1ccc(OCCC(=O)OCC(=O)NC2CCCCC2)cc1 | -31.8 |
| CC(=O)OCC1=C(C(=O)O)N2C(=O)C(NC(=O)Cn3nc(C(F)F)c(Cl)c3C)C2SC1 (stereo not drawn) | 31.1 |
| COc1cccc(C=N[C@@H](CO)[C@@H](O)c2ccc([N+](=O)[O-])cc2)c1O | 3.07 |
| COc1ccc(-n2c(=O)[nH]cc(C(=O)Nc3ccc4c(c3)OCCO4)c2=O)cc1OC | 6.18 |
| Cc1cc(C(=O)OCC(=O)N(C)C2CCS(=O)(=O)C2)c(C)n1-c1ccccc1 (stereo not drawn) | -15.2 |
| CNC(=O)COC(=O)c1cc(NC(=O)c2ccco2)c(OC)c(OC)c1 | 2.4 |
| S=c1[nH]nc(-c2ccccc2)n1/N=C/c1cccc(Br)c1 | 21.4 |
| CC(C)C(OC(=O)c1cccc(S(=O)(=O)NCC(F)(F)F)c1)C(=O)NC(N)=O (stereo not drawn) | 8.71 |
| Cc1ccc(S(=O)(=O)CCc2nnc(NC(=O)C3CCCO3)s2)cc1 (stereo not drawn) | -4.14 |
| CC(C)N(CC#CCC(O)(c1ccccc1)C1CCCC1)CCO (stereo not drawn) | -20.3 |
| O=C(COC(=O)CN1C(=O)C2CCCCC2C1=O)NNC(=O)c1ccc(Cl)cc1 (stereo not drawn) | 15.8 |
| Cc1cccc(NC(=O)NCc2ccccn2)c1 | 2.73 |
| Cc1nonc1N1CCN(Cc2cn[nH]c2-c2ccc(F)cc2F)CC1 | -11.9 |
| Cc1ccccc1S(=O)(=O)N1CC(C(=O)O)=CC[C@H]1c1ccc(Cl)cc1 | 15.8 |

| Compound | hERG current change (%, negative = inhibition) at 10uM [%] |
| --- | --- |
| Cc1ccccc1NC(=S)N(CCN(C)C)C(C)c1ccco1 (stereo not drawn) | -12.1 |
| Nc1ccc(S(=O)(=O)Nc2nc3ccccc3o2)cc1 | 15.9 |
| COc1ccc(N=NC2=C(O)CC(C)(C)CC2=O)cc1 | -9.39 |
| O=C(c1ccc([N+](=O)[O-])o1)N1CCc2ccccc2C1 | -23.1 |
| CC1=CCC(C(=O)O)(C(=O)N/N=C/c2cccs2)C(c2ccc(Cl)cc2)C1 (stereo not drawn) | -13.4 |
| CSc1nnc2c(n1)[nH]c1c(C)cccc12 | 2.43 |
| CN1C(=S)N2CCCN2C1c1ccccc1 (stereo not drawn) | 6.96 |
| COc1ccc(OCC(=O)OCC(=O)NC2CC2)cc1 | 7.47 |
| COc1ccc(NC(=O)c2ccc(NC(=O)c3ccncc3)cc2)cc1 | 27 |
| COc1ccccc1OCc1n[nH]c(=S)n1Cc1ccccc1 | 2.4 |
| COc1ccc(Br)cc1/C=C(\C(=O)O)c1ccc(S(=O)(=O)N2CCCCC2)s1 | 0.483 |
| CC(=O)Nc1cccc(C(=O)NC2CCCc3c2cnn3-c2ccc(C(C)(C)C)cc2)c1 (stereo not drawn) | 8.12 |
| Nc1ccc(NC(=O)c2cccs2)cc1 | 35 |
| COc1ccc(CCNC(=O)CCC(=O)N2CCOc3ccccc32)cc1OC | -16.8 |
| COC(=O)c1ccc(C2CC(=O)Nc3cc(OC)c(OC)cc32)cc1 (stereo not drawn) | -29.2 |
| O=C(CN1CCC(NC(=O)Nc2ccccc2)CC1)Nc1ccc([N+](=O)[O-])cc1 | -64.4 |
| CC(=O)N(CCc1ccccc1)Cc1cc2cc(C)ccc2[nH]c1=O | -3.82 |
| CC1CC1C(=O)NCCc1ccc(Cl)cc1 (stereo not drawn) | -0.482 |
| CC(C)c1ccccc1NC(=O)Nc1ccc(F)cc1F | 11.7 |
